Laboratory results: the supplement of paper PMC8728848
The list shows a part of the results.

Assays:
Experiment in all cases: glycan array binding signal (z-score within array); higher = stronger binding
Conditions in all cases: glycan notation: IUPAC condensed, linker removed
[1] = biological target: Fuc(a1-2)Gal(b1-4)GlcNAc(b1-3)Gal(b1-4)GlcNAc(b1-3)Gal(b1-4)GlcNAc
Summary of the method: (§1)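 From the Consortium for Functional Glycomics database, 3228 arrays were curated, keeping only those whose protein sequence was available. Binding is given as a within-array Z-score averaged across arrays sharing a protein sequence and across linkers. Negative Z-scores can be read as non-binding.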

[2] = biological target: Fuc(a1-2)Gal(b1-4)GlcNAc(b1-3)GalNAc
Summary of the method: as §1

[3] = biological target: Fuc(a1-2)Gal(b1-4)GlcNAc(b1-3)[Fuc(a1-2)Gal(b1-4)GlcNAc(b1-6)]GalNAc
Summary of the method: as §1

[4] = biological target: Fuc(a1-2)Gal(b1-4)GlcNAc(b1-3)[Fuc(a1-3)[Gal(b1-4)]GlcNAc(b1-6)]Gal(b1-4)Glc
Summary of the method: as §1

[5] = biological target: Fuc(a1-2)Gal(b1-4)GlcNAc(b1-6)GalNAc
Summary of the method: as §1

[6] = biological target: Fuc(a1-2)Gal(b1-4)GlcNAc6S
Summary of the method: as §1

[7] = biological target: Fuc(a1-2)Gal(b1-4)[Fuc(a1-3)]GlcNAc
Summary of the method: as §1

[8] = biological target: Fuc(a1-2)Gal(b1-4)[Fuc(a1-3)]GlcNAc(b1-2)Man(a1-3)[Fuc(a1-2)Gal(b1-4)[Fuc(a1-3)]GlcNAc(b1-2)Man(a1-6)]Man(b1-4)GlcNAc(b1-4)[Fuc(a1-6)]GlcNAc
Summary of the method: as §1

[9] = biological target: Fuc(a1-2)Gal(b1-4)[Fuc(a1-3)]GlcNAc(b1-2)[Fuc(a1-2)Gal(b1-4)[Fuc(a1-3)]GlcNAc(b1-4)]Man(a1-3)[Fuc(a1-2)Gal(b1-4)[Fuc(a1-3)]GlcNAc(b1-2)Man(a1-6)]Man(b1-4)GlcNAc(b1-4)GlcNAc
Summary of the method: as §1

[10] = biological target: Fuc(a1-2)Gal(b1-4)[Fuc(a1-3)]GlcNAc(b1-3)Gal(b1-4)[Fuc(a1-3)]GlcNAc
Summary of the method: as §1

[11] = biological target: Fuc(a1-2)Gal(b1-4)[Fuc(a1-3)]GlcNAc(b1-3)Gal(b1-4)[Fuc(a1-3)]GlcNAc(b1-3)Gal(b1-4)[Fuc(a1-3)]GlcNAc
Summary of the method: as §1

[12] = biological target: Fuc(a1-2)Gal(b1-4)[Fuc(a1-3)]GlcNAc(b1-3)GalNAc
Summary of the method: as §1

[13] = biological target: Fuc(a1-2)Gal(b1-4)[Fuc(a1-3)]GlcNAc(b1-3)[Neu5Ac(a2-6)Gal(b1-4)GlcNAc(b1-6)]Gal(b1-4)Glc
Summary of the method: as §1

[14] = biological target: Fuc(a1-2)Gal3S(b1-4)GlcNAc
Summary of the method: as §1

[15] = biological target: Fuc(a1-2)Gal6S(b1-3)GlcNAc
Summary of the method: as §1

[16] = biological target: Fuc(a1-2)Gal6S(b1-3)GlcNAc6S
Summary of the method: as §1

Fuc(a1-2)Gal6S(b1-4)Glc = biological target: Fuc(a1-2)Gal6S(b1-4)Glc
Summary of the method: as §1

[17] = biological target: Fuc(a1-2)Gal6S(b1-4)Glc6S
Summary of the method: as §1

Fuc(a1-2)[Gal(a1-3)]Gal = biological target: Fuc(a1-2)[Gal(a1-3)]Gal
Summary of the method: as §1

[18] = biological target: Fuc(a1-2)[Gal(a1-3)]Gal(b1-3)GalNAc
Summary of the method: as §1

[19] = biological target: Fuc(a1-2)[Gal(a1-3)]Gal(b1-3)GalNAc(b1-3)Gal(a1-4)Gal(b1-4)Glc
Summary of the method: as §1

[20] = biological target: Fuc(a1-2)[Gal(a1-3)]Gal(b1-3)GlcNAc
Summary of the method: as §1

[21] = biological target: Fuc(a1-2)[Gal(a1-3)]Gal(b1-3)GlcNAc(b1-2)Man(a1-3)[Fuc(a1-2)[Gal(a1-3)]Gal(b1-3)GlcNAc(b1-2)Man(a1-6)]Man(b1-4)GlcNAc(b1-4)GlcNAc
Summary of the method: as §1

[22] = biological target: Fuc(a1-2)[Gal(a1-3)]Gal(b1-3)GlcNAc(b1-2)Man(a1-3)[Fuc(a1-2)[Gal(a1-3)]Gal(b1-3)GlcNAc(b1-2)Man(a1-6)]Man(b1-4)GlcNAc(b1-4)[Fuc(a1-6)]GlcNAc
Summary of the method: as §1

[23] = biological target: Fuc(a1-2)[Gal(a1-3)]Gal(b1-3)GlcNAc(b1-3)GalNAc
Summary of the method: as §1

[24] = biological target: Fuc(a1-2)[Gal(a1-3)]Gal(b1-3)GlcNAc(b1-6)GalNAc
Summary of the method: as §1

[25] = biological target: Fuc(a1-2)[Gal(a1-3)]Gal(b1-4)Glc
Summary of the method: as §1

[26] = biological target: Fuc(a1-2)[Gal(a1-3)]Gal(b1-4)GlcNAc
Summary of the method: as §1

[27] = biological target: Fuc(a1-2)[Gal(a1-3)]Gal(b1-4)GlcNAc(b1-2)Man
Summary of the method: as §1

[28] = biological target: Fuc(a1-2)[Gal(a1-3)]Gal(b1-4)GlcNAc(b1-2)Man(a1-3)[Fuc(a1-2)[Gal(a1-3)]Gal(b1-4)GlcNAc(b1-2)Man(a1-6)]Man(b1-4)GlcNAc(b1-4)GlcNAc
Summary of the method: as §1

[29] = biological target: Fuc(a1-2)[Gal(a1-3)]Gal(b1-4)GlcNAc(b1-2)Man(a1-3)[Fuc(a1-2)[Gal(a1-3)]Gal(b1-4)GlcNAc(b1-2)Man(a1-6)]Man(b1-4)GlcNAc(b1-4)[Fuc(a1-6)]GlcNAc
Summary of the method: as §1

[30] = biological target: Fuc(a1-2)[Gal(a1-3)]Gal(b1-4)GlcNAc(b1-3)GalNAc
Summary of the method: as §1

[31] = biological target: Fuc(a1-2)[Gal(a1-3)]Gal(b1-4)GlcNAc(b1-6)GalNAc
Summary of the method: as §1

[32] = biological target: Fuc(a1-2)[Gal(a1-3)]Gal(b1-4)[Fuc(a1-3)]Glc
Summary of the method: as §1

[33] = biological target: Fuc(a1-2)[Gal(a1-3)]Gal(b1-4)[Fuc(a1-3)]GlcNAc
Summary of the method: as §1

[34] = biological target: Fuc(a1-2)[Gal(a1-3)]Gal(b1-4)[Fuc(a1-3)]GlcNAc(b1-3)GalNAc
Summary of the method: as §1

[35] = biological target: Fuc(a1-2)[Gal(a1-4)]Gal(b1-4)GlcNAc
Summary of the method: as §1

[36] = biological target: Fuc(a1-2)[GalNAc(a1-3)]Gal
Summary of the method: as §1

[37] = biological target: Fuc(a1-2)[GalNAc(a1-3)]Gal(b1-3)GalNAc(a1-3)[Fuc(a1-2)]Gal(b1-4)GlcNAc
Summary of the method: as §1

[38] = biological target: Fuc(a1-2)[GalNAc(a1-3)]Gal(b1-3)GalNAc(b1-3)Gal(a1-4)Gal(b1-4)Glc
Summary of the method: as §1

[39] = biological target: Fuc(a1-2)[GalNAc(a1-3)]Gal(b1-3)GlcNAc
Summary of the method: as §1

[40] = biological target: Fuc(a1-2)[GalNAc(a1-3)]Gal(b1-3)GlcNAc(b1-2)Man(a1-3)[Fuc(a1-2)[GalNAc(a1-3)]Gal(b1-3)GlcNAc(b1-2)Man(a1-6)]Man(b1-4)GlcNAc(b1-4)GlcNAc
Summary of the method: as §1

[41] = biological target: Fuc(a1-2)[GalNAc(a1-3)]Gal(b1-3)GlcNAc(b1-2)Man(a1-3)[Fuc(a1-2)[GalNAc(a1-3)]Gal(b1-3)GlcNAc(b1-2)Man(a1-6)]Man(b1-4)GlcNAc(b1-4)[Fuc(a1-6)]GlcNAc
Summary of the method: as §1

[42] = biological target: Fuc(a1-2)[GalNAc(a1-3)]Gal(b1-3)GlcNAc(b1-3)GalNAc
Summary of the method: as §1

[43] = biological target: Fuc(a1-2)[GalNAc(a1-3)]Gal(b1-3)GlcNAc(b1-6)GalNAc
Summary of the method: as §1

B1: ACA (Amaranthus caudatus) (protein)
chain: MAGLPVIMCLKSNNNQKYLRYQSDNIQQYGLLQFSADKILDPLAQFEVEPSKTYDGLVHIKSRYTNKYLVRWSPNHYWITASANEPDENKSNWACTLFKPLYVEEGNMKKVRLLHVQLGHYTQNYTVGGSFVSYLFAESSQIDTGSKDVFHVIDWKSIFQFPKRYVTFKGNNGKYLGVITINQLPCLQFGYDNLNDPKVAHEMFVTSNGTICIKSTYMNKFWRLSTDDWILVDGNDPRETNEAAALFRSDVHDFNVISLLNMQKTWFIKRFTSGKPGFINCMNAATQNVDETAILEIIELGSNN
For B1, the “glycan array binding signal (z-score)” value [1] was -0.044, the “glycan array binding signal (z-score)” value [2] was -0.181 and the “glycan array binding signal (z-score)” value [3] was 0.141. The “glycan array binding signal (z-score)” value [4] was -0.303, the “glycan array binding signal (z-score)” value [5] was 0.319 and the “glycan array binding signal (z-score)” value [6] was -0.216. The “glycan array binding signal (z-score)” value [7] was -0.061, the “glycan array binding signal (z-score)” value [8] was 0.071 and the “glycan array binding signal (z-score)” value [9] was 0.91. The “glycan array binding signal (z-score)” value [10] was -0.483, the “glycan array binding signal (z-score)” value [11] was 0.327 and the “glycan array binding signal (z-score)” value [12] was 0.188. The “glycan array binding signal (z-score)” value [13] was -0.408, the “glycan array binding signal (z-score)” value [14] was -0.222 and the “glycan array binding signal (z-score)” value [15] was -0.197. The “glycan array binding signal (z-score)” value [16] was -0.216, the “glycan array binding signal (z-score)” value (Fuc(a1-2)Gal6S(b1-4)Glc) was -0.278 and the “glycan array binding signal (z-score)” value [17] was -0.123. For the same binder, the “glycan array binding signal (z-score)” value (Fuc(a1-2)[Gal(a1-3)]Gal) was -0.175, the “glycan array binding signal (z-score)” value [18] was -0.284 and the “glycan array binding signal (z-score)” value [19] was -0.181. For the same binder, the “glycan array binding signal (z-score)” value [20] was 0.33, the “glycan array binding signal (z-score)” value [21] was -0.45 and the “glycan array binding signal (z-score)” value [22] was -0.343. For the same binder, the “glycan array binding signal (z-score)” value [23] was -0.235, the “glycan array binding signal (z-score)” value [24] was 0.471 and the “glycan array binding signal (z-score)” value [25] was -0.242. For the same binder, the “glycan array binding signal (z-score)” value [26] was -0.304, the “glycan array binding signal (z-score)” value [27] was -0.223 and the “glycan array binding signal (z-score)” value [28] was 0.028. The “glycan array binding signal (z-score)” value [29] was -0.403, the “glycan array binding signal (z-score)” value [30] was -0.078 and the “glycan array binding signal (z-score)” value [31] was 0.406. For the same binder, the “glycan array binding signal (z-score)” value [32] was -0.424, the “glycan array binding signal (z-score)” value [33] was 0.218 and the “glycan array binding signal (z-score)” value [34] was 0.188. For the same binder, the “glycan array binding signal (z-score)” value [35] was -0.302, the “glycan array binding signal (z-score)” value [36] was -0.401 and the “glycan array binding signal (z-score)” value [37] was -0.463. The “glycan array binding signal (z-score)” value [38] was -0.585, the “glycan array binding signal (z-score)” value [39] was -0.05 and the “glycan array binding signal (z-score)” value [40] was -0.352. For the same binder, the “glycan array binding signal (z-score)” value [41] was -0.749, the “glycan array binding signal (z-score)” value [42] was -0.016 and the “glycan array binding signal (z-score)” value [43] was -0.491.
